Values joined by “and” are separate entries in the source; they are usually repeats but may differ in a detail not shown here. Equal values may be shown once. The campaign covered roughly 410,000 compounds. About 6,400 (1.6%) were called active. Inconclusive means that the source gave no clear call. Such entries were picked first, then a sample of the others. Calls come from the whole dose curve; as a rule, active = well fitted inhibition curve with a large enough effect; inconclusive = small, poorly fitted or top-dose-only effect; inactive = no such curve, though single readings can be large or run the other way. A potency beside an inconclusive call is a rough fit, not a confirmed value.
Target: Glucagon-like peptide 1 receptor (Homo sapiens) (UniProt P43220)
Test: qHTS of GLP-1 Receptor Inverse Agonists (Inhibition Mode); note: nearly all actives have a fitted effect of over 55% in size
Conditions: HEK293 GLP-1R CRE-luciferase, luminescence, 24 h, GLP-1R form is constitutively active; activity change, negative = inhibition: at 38.3 µM (top of the series) unless noted
How it was run: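 Seeding at 200 cells/uL, 12 h culture, 24 hr compound treatment, then luciferase reagent and a luminescence read; cells are HEK293 stably expressing a constitutively active GLP-1R plus cAMP-responsive luciferase.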
% is set by controls: 0 for no effect and ±100 for the full control effect; potency is the fitted concentration of half-maximal effect; tags give direction and shape of the fitted curve.

Chain of UniProt P43220 (P43220 whole entry, looked up): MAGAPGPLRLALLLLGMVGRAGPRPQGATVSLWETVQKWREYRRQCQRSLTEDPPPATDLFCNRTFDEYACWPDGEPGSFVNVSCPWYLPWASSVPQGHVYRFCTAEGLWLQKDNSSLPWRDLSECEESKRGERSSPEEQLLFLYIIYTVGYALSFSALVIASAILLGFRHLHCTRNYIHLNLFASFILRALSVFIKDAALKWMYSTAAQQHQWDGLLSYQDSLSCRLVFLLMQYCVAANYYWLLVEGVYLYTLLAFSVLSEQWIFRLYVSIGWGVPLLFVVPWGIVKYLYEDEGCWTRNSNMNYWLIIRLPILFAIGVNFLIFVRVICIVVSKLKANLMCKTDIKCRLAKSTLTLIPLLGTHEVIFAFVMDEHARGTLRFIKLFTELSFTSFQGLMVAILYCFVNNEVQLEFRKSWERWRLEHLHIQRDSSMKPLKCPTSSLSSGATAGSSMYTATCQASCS

Structure (SMILES)	Potency	activity change, negative = inhibition
N#Cc1c(-c2ccc(Cl)cc2)cc(-c2ccccc2)nc1SCC(=O)O	inconclusive: 10 µM [inhibitor, partial curve]	–
CCn1nccc1C(=O)Nc1ccc(S(=O)(=O)NC23CC4CC(CC(C4)C2)C3)cc1	inconclusive: 7.08 µM [inhibitor, partial curve, poor fit]	–
COc1cccc(C(C)(O)c2nc(-c3ccccc3C)cs2)c1 (configuration not stated)	inconclusive: 28.2 µM [inhibitor, single point]	–
COc1ccccc1CCNC(=O)CNC(=O)c1ccc2ccccc2c1	inconclusive: 7.08 µM [inhibitor, partial curve, poor fit]	–
CC(C)n1c(N2CCN(C(=O)Nc3ccc(Cl)cc3)CC2)nc2ccccc21	inconclusive: 8.91 µM [inhibitor, partial curve]	–
CCCCc1c(CCC)c(=N)c2ccccc2n1C	inconclusive: 10 µM [inhibitor, partial curve]	–
CC1(C)OC(C(O)(c2ccccc2)c2ccccc2)[C@@H](C(O)(c2ccccc2)c2ccccc2)O1 (some centres not stated)	–	inactive: 12.7%
COC(=O)[C@H](CC(C)C)NCc1cccc(CN[C@@H](CC(C)C)C(=O)OC)c1	inconclusive: 6.31 µM [inhibitor, partial curve, poor fit]	–
Cc1ccc2nc(-c3ccc(NC(=O)CN4C(=O)NC(C)(c5ccc(OC(F)F)cc5)C4=O)cc3)sc2c1 (configuration not stated)	inconclusive: 1.41 µM [inhibitor, full curve, poor fit]	–
COCCCNC(=O)CCCn1c(SCC(=O)c2ccc(Br)cc2)nc2c(sc3ccccc32)c1=O	–	inactive: 6.86%
Cc1ccc(C(=O)NCC(c2ccc(Cl)cc2)N2CCCCC2)cc1 (configuration not stated)	inconclusive: 11.2 µM [inhibitor, single point]	–
COc1cccc2sc(Nc3nnc(-c4ccc(F)cc4)o3)nc12	inconclusive: 12.6 µM [inhibitor, partial curve, poor fit]	–
CC1(C)Cc2c(sc3nc(-c4ccccc4Cl)n(N)c(=O)c23)CO1	inconclusive: 7.08 µM [inhibitor, partial curve, poor fit]	–
CCC(C)n1c(SCC(=O)Nc2ccccc2C(=O)OC)nc2ccsc2c1=O (configuration not stated)	inconclusive: 17.8 µM [inhibitor, single point]	–
O=C1N[C@@H](Cc2ccccc2)C(=O)N2[C@@H]3N(S(=O)(=O)c4ccc(F)cc4)c4ccccc4[C@]3(Br)C[C@@H]12	inconclusive: 12.6 µM [inhibitor, single point]	–
CN(Cc1ccccc1Cl)C(=O)CNC(=O)C12CC3CC(CC(C3)C1)C2	inconclusive: 11.2 µM [inhibitor, partial curve, poor fit]	–
CN(C(=O)c1ccc(NC(=O)C2CCCN(C(=O)OC(C)(C)C)C2)cc1)C1CCCCC1 (configuration not stated)	inconclusive: 11.2 µM [inhibitor, single point]	–
CCn1nccc1NC(=O)c1csc([C@@H]2O[C@H](CO)[C@H](O)[C@H](O)[C@H]2O)n1	–	inactive: -2.22%
CC1CCc2nn(CC(=O)NCCC3=CCCCC3)cc2C1 (configuration not stated)	inconclusive: 14.1 µM [inhibitor, partial curve, poor fit]	–

Structure (SMILES)	Potency	activity change, negative = inhibition
COc1ccc(NS(=O)(=O)c2cccc(C(=O)NCC(c3ccccc3)N(C)C)c2)cc1 (configuration not stated)	–	inactive: -20.3%
Cc1cccc(C)c1Nc1sc(C(=O)c2ccccc2)c(N)c1S(=O)(=O)c1ccccc1	inconclusive: 5.62 µM [inhibitor, full curve, poor fit]	–
Nc1ncnc2c1ncn2[C@@H]1O[C@H](CNCc2ccc(-c3cc(C(F)(F)F)ccc3Cl)o2)[C@@H](O)[C@H]1O	–	inactive: 3.52%
N#C/C(=N\Nc1ccccc1)C(N)=S	inconclusive: 1.58 µM [inhibitor, full curve, poor fit]	–
C/C(=N\NC(=O)COc1ccc(C(C)(C)C)cc1)c1ccc(-n2ccnc2)cc1	inconclusive: 31.6 µM [inhibitor, partial curve, poor fit]	–
O=C(NCC(=O)N1CCC(Cc2ccccc2)CC1)c1ccc(Cl)cc1	inconclusive: 31.6 µM [inhibitor, single point]	–
O=C(Cc1ccc(Cl)cc1)Nc1ccc(N2CCN(C(=O)c3ccco3)CC2)cc1	inconclusive: 6.31 µM [inhibitor, partial curve, poor fit]	–
Cc1ccc(CC(=O)Nc2ncc([N+](=O)[O-])s2)cc1	inconclusive: 28.2 µM [inhibitor, single point]	–
C#Cc1ccc([C@@H]2C=C(C(=O)OCC=C)O[C@H](OCC)[C@H]2CCCO)cc1	inconclusive: 12.6 µM [inhibitor, single point]	–
COc1ccc2c(c1)OC[C@H]1[C@H]2N2C(=O)CN(Cc3ccccc3)C(=O)[C@@]2(C)[C@H]1c1ccccc1	inconclusive: 22.4 µM [inhibitor, single point]	–
CC(C)NCCCOc1ccc(Cl)cc1Br	inconclusive: 7.08 µM [inhibitor, partial curve, poor fit]	–
NC(Cc1ccc(C(F)(F)F)cc1)c1csc(Nc2cnccn2)n1 (configuration not stated)	inconclusive: 22.4 µM [inhibitor, single point]	–
CCOc1ccc(C2C=C(c3ccccc3)Nc3nnnn32)cc1 (configuration not stated)	–	inactive: 14.4%
CCS(=O)(=O)c1ncc(Cl)c(C(=O)Nc2ccc(S(=O)(=O)N(C)c3ccccc3)cc2)n1	inconclusive: 15.8 µM [inhibitor, single point] and inconclusive: 28.2 µM [inhibitor, single point]	–
Cc1ccc(/C=C/c2onc(C)c2S(=O)(=O)N2CCC(C(=O)N3CCN(C)CC3)CC2)cc1	active: 6.31 µM	–
COc1cccc(-c2cc(=O)c3cc(NC(=O)c4ccccc4)ccc3[nH]2)c1	inconclusive: 3.55 µM [inhibitor, full curve]	–
CCOC(=O)c1c(-c2cccs2)csc1NC(C)=O	inconclusive: 28.2 µM [inhibitor, single point]	–
O=C(Cn1cc(SCc2ccccc2Cl)c2ccccc21)N1CCOCC1	inconclusive: 28.2 µM [inhibitor, single point]	–
